# Assay results published in paper PMC4336329 (PLoS ONE, 2015).
# Hit rate of the full screen: of about 310,000 compounds, about 2,200 (0.71%) showed an effect of 50% or more. Effects have a minus sign here. Some of the results follow.
# Target: human ether-à-go-go-related gene (hERG) potassium channel (human, UniProt Q12809)
# Assay: primary screen, population patch clamp on CHO cells stably expressing hERG
# Sequence of human ether-à-go-go-related gene (hERG) potassium channel (Q12809 whole entry, looked up): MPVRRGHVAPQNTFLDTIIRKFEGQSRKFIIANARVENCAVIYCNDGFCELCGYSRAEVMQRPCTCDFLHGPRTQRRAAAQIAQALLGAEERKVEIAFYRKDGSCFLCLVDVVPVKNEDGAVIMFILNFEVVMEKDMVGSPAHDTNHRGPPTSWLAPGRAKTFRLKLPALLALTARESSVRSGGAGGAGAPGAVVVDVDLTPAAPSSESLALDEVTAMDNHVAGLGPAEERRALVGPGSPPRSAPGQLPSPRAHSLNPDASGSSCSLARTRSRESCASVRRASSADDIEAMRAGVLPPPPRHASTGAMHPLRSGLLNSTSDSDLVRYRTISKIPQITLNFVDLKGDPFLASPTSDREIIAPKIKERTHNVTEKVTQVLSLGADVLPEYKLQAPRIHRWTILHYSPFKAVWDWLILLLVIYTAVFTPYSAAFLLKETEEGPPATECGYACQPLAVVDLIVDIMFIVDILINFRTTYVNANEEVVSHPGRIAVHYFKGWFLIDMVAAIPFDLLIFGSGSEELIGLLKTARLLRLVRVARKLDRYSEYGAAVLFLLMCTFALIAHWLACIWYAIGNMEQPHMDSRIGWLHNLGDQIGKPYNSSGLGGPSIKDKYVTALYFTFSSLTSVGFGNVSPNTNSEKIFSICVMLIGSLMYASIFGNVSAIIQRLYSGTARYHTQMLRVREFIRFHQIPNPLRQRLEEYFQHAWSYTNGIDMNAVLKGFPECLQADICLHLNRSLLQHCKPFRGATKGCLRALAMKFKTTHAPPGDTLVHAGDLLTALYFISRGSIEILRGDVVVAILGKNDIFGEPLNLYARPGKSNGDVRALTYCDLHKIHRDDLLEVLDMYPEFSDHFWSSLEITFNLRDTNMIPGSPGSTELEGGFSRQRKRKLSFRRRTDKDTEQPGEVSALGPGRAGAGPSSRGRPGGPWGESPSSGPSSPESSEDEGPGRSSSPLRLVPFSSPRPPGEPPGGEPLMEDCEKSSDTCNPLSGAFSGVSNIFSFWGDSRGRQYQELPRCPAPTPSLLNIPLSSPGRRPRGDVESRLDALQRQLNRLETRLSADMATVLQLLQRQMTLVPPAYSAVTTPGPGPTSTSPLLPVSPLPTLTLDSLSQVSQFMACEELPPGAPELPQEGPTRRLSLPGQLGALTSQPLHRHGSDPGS
row,Compound,"hERG current change (%, negative = inhibition) at 1uM"
1,Cc1ccc(-n2c(O)c(/C=N/N3CCCCCC3)c(=O)[nH]c2=O)cc1C,11.7%
2,O=C1C=C(NCc2ccco2)C2(CCCCC2)O1,12%
3,COc1ccc(/C=C(\NC(=O)c2cccs2)C(=O)NC(C)(C)C)cc1OC,11.2%
4,CC(=O)Nc1ccc(SC[C@H](CC(C)C)N2CCN(CC(C)C)CCC2=O)cc1,-10%
5,COc1ccc(C(=O)N/C(=C\c2ccc3c(c2)OCO3)C(=O)Nc2ccc(C(=O)O)cc2)cc1,10.6%
6,O=C(Nc1nnc(SCc2ccccc2Cl)s1)c1cccc([N+](=O)[O-])c1,3.89%
7,Cc1ccc(-n2ncc3c(SCC(=O)Nc4cc(C)on4)ncnc32)c(C)c1,7.97%
8,O=C(/C=C/c1ccccc1Cl)NNC(=O)c1ccncc1,5.81%
9,COc1ccc(C(C)=O)cc1CC(C(=O)c1ccc(Br)cc1)N(C)C (stereo not drawn),9.63%
10,Cc1cc(NS(=O)(=O)c2ccc(NC(=O)c3ccc(Cl)cc3[N+](=O)[O-])cc2)no1,17%
11,COc1ccccc1NC(=O)c1cc(S(=O)(=O)NCc2ccccc2)ccc1F,12.1%
12,CCC(/C=N/NC(=O)C(=O)N/N=C/C(CC)CC)CC,11.9%
13,N#C/C=C/C#N,7.86%
14,Cc1ccc2cc(CCNC(=O)C(C)C)c(=O)[nH]c2c1C,13.2%
15,CC1SC(C)C(=O)N(CC(=O)Nc2ccc3c(c2)OCO3)C1=O (stereo not drawn),5.06%
16,O=C(Cn1c(=O)oc2ccccc21)Nc1ccc(F)c(F)c1,10.6%
17,Cc1occc1C(=O)N/N=C/c1ccc(OCc2ccccc2)cc1,10.1%
18,CC(NC(=O)c1ccc(N(C)C)cc1)c1ccc(F)cc1 (stereo not drawn),6.16%
19,Cc1cc(C)n(C(=O)CCNC(=O)c2ccccc2Br)n1,12.8%

row,Compound,"hERG current change (%, negative = inhibition) at 1uM"
1,CCN(CC)CCNc1nc2c(c(=O)n(C)c(=O)n2C)n1C/C=C(/C)Cl,-44.6%
2,Nc1ccccc1S(=O)(=O)NC1=NCCCCC1,8.35%
3,COc1ccc(CCn2nnnc2C(CC(C)C)N2CCC(C(N)=O)CC2)cc1OC (stereo not drawn),3.82%
4,Cl.c1ccc(-c2nc(NCc3cccnc3)c3oc4ccccc4c3n2)cc1,11.1%
5,NC(=O)C1=C[C@H](c2ccc(Br)cc2)C[C@H](OCc2ccc(CO)cc2)O1,9.19%
6,COc1ccc(C(c2nnnn2Cc2cccs2)N2CCN(c3ccccc3F)CC2)cc1 (stereo not drawn),8.8%
7,CCC(C)C(=O)Nc1ncc2c(n1)CC(c1cccs1)CC2=O (stereo not drawn),-3.87%
8,O=C(O)c1cnn(-c2ccccc2)c1-c1ccccc1,16.9%
9,C/C(CC(=O)Nc1cc(Cl)ccc1Cl)=N\NC(=O)COc1cccc(C)c1,16.3%
10,CCC1CCCCN1CC(=O)Nc1cc(C)nn1-c1nc(C)cc(C)n1 (stereo not drawn),-10.3%
11,CC1CCC(NC(=O)CN2C(=O)NC3(CCCCC3C)C2=O)CC1 (stereo not drawn),12.2%
12,CCOC(=O)c1[nH]cnc1C(=O)Nc1ccc([N+](=O)[O-])cc1,5.19%
13,COc1ccc(C(=O)NCc2ccc(Cl)c(Cl)c2)cc1OC,0.388%
14,CC(C)c1nnc(SCC(=O)N2CCc3ccccc32)n1C,-4.56%
15,Cc1ccc(S(=O)(=O)N2CCOCC2)cc1NC(=O)COC(=O)CSc1ccc(Br)cc1C,2.39%
16,Cc1cc(C(F)(F)F)cc(NNC(=O)NC(=O)c2ccccc2Cl)n1,12.3%
17,CCc1ccc(NC(=O)NC(C)c2ccc3c(c2)OCO3)cc1 (stereo not drawn),4.18%
18,COCC(=O)Nc1ccccc1C(=O)Nc1ccc(OC)cc1,-6.86%
19,CS(=O)(=O)n1nc(OC(=O)c2cc(Br)ccc2Cl)cc1N,12.2%

row,Compound,"hERG current change (%, negative = inhibition) at 1uM"
1,Cc1c(N=C2N=C(NC(=O)Nc3ccc(Cl)cc3)c3ccccc32)c(=O)n(-c2ccccc2)n1C,14.3%
2,COc1ccc(/C=C/C(=O)NCCN=C2NS(=O)(=O)c3ccccc32)cc1,6.82%
3,Cc1cc(=O)[nH]c(/N=C(\N)Nc2ccc3c(c2)OCCO3)n1,12%
4,CC(=O)NC12CC3CC(C1)CC(C(=O)OCC(=O)NC(=O)c1cccn1C)(C3)C2,5.52%
5,CCOc1ccc(OCCC(=O)OCC(=O)NC2CCCC2)cc1,27.2%
6,CC(C)(C)[C@H]1C=C(C(=O)N2CCOCC2)O[C@@H](OCCCCO)C1,8.26%
7,Cc1ccc(CNC(=O)c2ccc(Br)o2)cc1,5.75%
8,O=C(NCCCNC(=O)c1c(Cl)cccc1Cl)c1c(Cl)cccc1Cl,20.1%
9,Cc1cc(C(=O)N/N=C/c2cccnc2)n[nH]1,12.4%
10,CCOC(=O)N1CCC(n2c(SCC(=O)NCc3ccco3)nc3ccsc3c2=O)CC1,-15.4%
11,Cc1ccc2c(NC(=O)C3CC3)cccc2n1,6.88%
12,COc1ccc(NC(=S)N2CCN(S(=O)(=O)c3ccc(F)cc3)CC2)cc1OC,10.8%
13,Cc1nnsc1C(=O)NNc1ccc(Cl)cc1,1.36%
14,CC(=O)c1nn(-c2ccccc2)cc1C(=O)c1ccc(C)cc1,14.8%
15,COc1cc(NC(=O)c2ccnn2C)c(OC)cc1Cl,12.3%
16,Cn1c(-[n+]2c(-c3ccccc3)cc(-c3ccccc3)cc2-c2ccccc2)nc2cc([N+](=O)[O-])ccc21.[I-],6.84%
17,COc1ccc(NC(=O)c2cc3ccccc3o2)cn1,16.1%
18,NC(=O)c1ccccc1OCC(=O)N1CCC(Cc2ccccc2)CC1,-1.79%
19,COc1ccc(-c2nn(CCC#N)cc2C(=O)Nc2ccccn2)cc1OC,16.3%
